# PubChem BioAssay (Tox21)
# The inconclusive results got no clear call from the source; some entries with a clear call stand among them for comparison. Potencies of inconclusive entries are left out as doubtful fits. Calls of active or inactive are those of the source. Calls come from the whole dose curve; as a rule, active = well fitted cell-killing curve with a large enough effect in the repeat runs; inconclusive = weak or mixed curves, or effect the other way; inactive = no such curve, though single readings can be large or run the other way.
# Assay: qHTS assay to identify small molecule antagonists of the vitamin D receptor (VDR) signaling pathway - cell viability counter screen (AID 743225); note: nearly all actives have a fitted effect of over 50% in size
# Settings: VDR-bla HEK293T viability, CellTiter-Glo luminescence, 16 h; viability change, negative = cytotoxic: at 61 µM (top of the series) unless noted
# Procedure, shortened: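 In this counter screen, VDR-bla HEK 293T cells receive test compound plus 3 nM final calcitriol for 16 h at 37C. Room-temperature steps of 2 h with the beta-lactamase substrate, then 30 min with CellTiter-Glo, precede the luminescence read.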
# % is set by controls: 0 for no effect and ±100 for the full control effect; potency is the fitted concentration of half-maximal effect; tags give direction and shape of the fitted curve.
SMILES,"viability change, negative = cytotoxic",Potency
O=C(CCCCCCCCC#CI)Oc1ccccc1,inactive: 7.26%,–
CC(C)=CCC/C(C)=C/CC/C(C)=C/CCC(=O)OC/C=C(\C)CCC=C(C)C,inactive: -3.3%,–
CCCCCCCCCC=O,–,"inconclusive [cytotoxic, single point]"
CC(C)(O)c1ccc(CNC(=O)c2cccnc2Oc2ccc3nonc3c2)cc1,inactive: -18.8%,–
COc1cc(N)c(Cl)cc1C(=O)NC1CCN(CCCOc2ccc(F)cc2)CC1OC (stereo not given),inactive: -16.3%,–
COC(=O)c1ccccc1C(=O)O,–,"inconclusive [cytotoxic, single point]"
CC(=O)Oc1ccccc1C(=O)O,–,"inconclusive [rising, full curve, poor fit]"
CC(C)C[C@H](NC(=O)[C@H](CCc1ccccc1)NC(=O)CN1CCOCC1)C(=O)N[C@@H](Cc1ccccc1)C(=O)N[C@@H](CC(C)C)C(=O)[C@@]1(C)CO1,–,"inconclusive [cytotoxic, partial curve]"
Cc1ccc(OC(=O)c2ccccc2O)cc1,–,"inconclusive [cytotoxic, full curve, poor fit]"
NCc1ccc(S(N)(=O)=O)cc1,–,"inconclusive [cytotoxic, partial curve, poor fit]"
